In article PMC12266122:
Results are given in words; binding and its absence hold for the method and conditions named. In cells and extracts the contact can be indirect. Some binding calls cover weakened binding; strength is not graded here. For some of these results: Where a sequence is shown, tags or fusion partners need not be part of it.

By UniProt entry, the sequences of proteins in these tests, tags left out. Where a name states a change or a piece, a line headed by the entry shows the natural chain unless it says otherwise.
UniProt Q9UHY1: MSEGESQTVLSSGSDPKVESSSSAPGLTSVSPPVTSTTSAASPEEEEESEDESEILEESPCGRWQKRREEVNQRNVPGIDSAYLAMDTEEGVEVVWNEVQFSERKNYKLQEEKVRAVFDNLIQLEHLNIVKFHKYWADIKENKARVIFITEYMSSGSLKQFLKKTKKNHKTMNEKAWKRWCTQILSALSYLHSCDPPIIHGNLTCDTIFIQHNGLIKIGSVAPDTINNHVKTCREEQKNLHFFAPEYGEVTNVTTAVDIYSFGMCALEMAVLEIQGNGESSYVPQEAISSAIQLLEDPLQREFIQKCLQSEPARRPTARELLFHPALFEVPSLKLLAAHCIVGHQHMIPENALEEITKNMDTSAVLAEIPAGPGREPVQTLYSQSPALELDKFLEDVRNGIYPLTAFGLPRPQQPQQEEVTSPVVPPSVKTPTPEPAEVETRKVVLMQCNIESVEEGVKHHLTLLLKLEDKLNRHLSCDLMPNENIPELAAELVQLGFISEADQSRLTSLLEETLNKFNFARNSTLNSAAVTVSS
UniProt Q9H4A3: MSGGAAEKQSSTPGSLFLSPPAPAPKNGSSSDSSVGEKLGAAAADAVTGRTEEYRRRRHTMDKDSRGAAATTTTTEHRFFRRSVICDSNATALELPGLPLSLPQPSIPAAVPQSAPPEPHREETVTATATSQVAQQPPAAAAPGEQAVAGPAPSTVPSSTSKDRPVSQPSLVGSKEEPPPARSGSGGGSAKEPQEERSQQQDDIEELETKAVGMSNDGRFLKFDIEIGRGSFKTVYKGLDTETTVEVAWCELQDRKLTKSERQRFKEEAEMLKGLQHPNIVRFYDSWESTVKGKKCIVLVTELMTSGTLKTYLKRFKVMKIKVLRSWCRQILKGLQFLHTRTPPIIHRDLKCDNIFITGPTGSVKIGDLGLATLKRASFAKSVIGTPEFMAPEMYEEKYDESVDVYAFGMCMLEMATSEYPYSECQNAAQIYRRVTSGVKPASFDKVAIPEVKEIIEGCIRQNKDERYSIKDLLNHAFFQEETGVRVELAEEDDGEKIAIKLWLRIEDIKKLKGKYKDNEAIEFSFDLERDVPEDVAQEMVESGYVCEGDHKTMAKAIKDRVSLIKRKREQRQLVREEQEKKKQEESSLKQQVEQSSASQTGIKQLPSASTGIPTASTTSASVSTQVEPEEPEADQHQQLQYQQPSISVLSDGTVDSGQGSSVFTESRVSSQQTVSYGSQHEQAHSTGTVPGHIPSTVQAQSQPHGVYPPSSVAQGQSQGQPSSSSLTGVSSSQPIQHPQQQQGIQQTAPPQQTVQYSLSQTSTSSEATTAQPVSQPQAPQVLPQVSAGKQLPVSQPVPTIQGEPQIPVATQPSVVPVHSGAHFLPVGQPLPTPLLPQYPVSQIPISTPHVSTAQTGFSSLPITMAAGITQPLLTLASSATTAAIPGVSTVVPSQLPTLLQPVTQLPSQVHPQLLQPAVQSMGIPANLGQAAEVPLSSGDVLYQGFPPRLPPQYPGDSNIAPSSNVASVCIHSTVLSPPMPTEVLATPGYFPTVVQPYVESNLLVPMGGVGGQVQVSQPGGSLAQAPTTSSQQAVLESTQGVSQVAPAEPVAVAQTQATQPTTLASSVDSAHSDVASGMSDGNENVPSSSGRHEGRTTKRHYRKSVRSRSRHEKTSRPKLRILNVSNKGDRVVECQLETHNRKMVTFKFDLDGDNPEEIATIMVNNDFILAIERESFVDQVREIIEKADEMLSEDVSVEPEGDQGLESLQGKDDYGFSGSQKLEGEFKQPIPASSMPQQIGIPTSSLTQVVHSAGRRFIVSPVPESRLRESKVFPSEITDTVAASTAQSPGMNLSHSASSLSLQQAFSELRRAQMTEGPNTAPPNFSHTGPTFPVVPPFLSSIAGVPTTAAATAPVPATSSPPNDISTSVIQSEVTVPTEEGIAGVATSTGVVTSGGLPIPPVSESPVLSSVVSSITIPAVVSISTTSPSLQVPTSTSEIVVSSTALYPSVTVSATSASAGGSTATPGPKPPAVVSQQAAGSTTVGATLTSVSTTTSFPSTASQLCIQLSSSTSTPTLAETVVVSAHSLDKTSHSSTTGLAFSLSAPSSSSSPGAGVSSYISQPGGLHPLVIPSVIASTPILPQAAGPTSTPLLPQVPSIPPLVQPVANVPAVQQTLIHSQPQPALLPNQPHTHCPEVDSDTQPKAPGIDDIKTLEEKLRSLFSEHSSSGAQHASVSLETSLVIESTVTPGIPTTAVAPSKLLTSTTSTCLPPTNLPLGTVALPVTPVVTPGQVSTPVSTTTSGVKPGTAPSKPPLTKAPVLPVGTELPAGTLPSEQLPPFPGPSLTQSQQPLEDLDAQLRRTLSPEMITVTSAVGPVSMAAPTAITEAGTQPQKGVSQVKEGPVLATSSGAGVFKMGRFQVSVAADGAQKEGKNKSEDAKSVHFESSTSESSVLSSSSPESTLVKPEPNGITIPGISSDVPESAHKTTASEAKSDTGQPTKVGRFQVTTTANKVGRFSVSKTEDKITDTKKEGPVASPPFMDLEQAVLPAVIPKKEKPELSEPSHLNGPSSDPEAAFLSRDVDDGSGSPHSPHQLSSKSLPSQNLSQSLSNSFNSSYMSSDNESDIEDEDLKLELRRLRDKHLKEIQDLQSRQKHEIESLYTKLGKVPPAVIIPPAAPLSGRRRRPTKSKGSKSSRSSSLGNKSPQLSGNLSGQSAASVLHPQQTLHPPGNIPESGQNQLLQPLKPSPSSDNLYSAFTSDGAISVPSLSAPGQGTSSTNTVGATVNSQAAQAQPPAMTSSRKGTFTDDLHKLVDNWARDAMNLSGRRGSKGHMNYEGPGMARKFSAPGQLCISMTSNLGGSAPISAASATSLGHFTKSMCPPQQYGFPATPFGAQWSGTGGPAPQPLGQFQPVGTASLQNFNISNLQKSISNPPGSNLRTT
UniProt Q9BYP7: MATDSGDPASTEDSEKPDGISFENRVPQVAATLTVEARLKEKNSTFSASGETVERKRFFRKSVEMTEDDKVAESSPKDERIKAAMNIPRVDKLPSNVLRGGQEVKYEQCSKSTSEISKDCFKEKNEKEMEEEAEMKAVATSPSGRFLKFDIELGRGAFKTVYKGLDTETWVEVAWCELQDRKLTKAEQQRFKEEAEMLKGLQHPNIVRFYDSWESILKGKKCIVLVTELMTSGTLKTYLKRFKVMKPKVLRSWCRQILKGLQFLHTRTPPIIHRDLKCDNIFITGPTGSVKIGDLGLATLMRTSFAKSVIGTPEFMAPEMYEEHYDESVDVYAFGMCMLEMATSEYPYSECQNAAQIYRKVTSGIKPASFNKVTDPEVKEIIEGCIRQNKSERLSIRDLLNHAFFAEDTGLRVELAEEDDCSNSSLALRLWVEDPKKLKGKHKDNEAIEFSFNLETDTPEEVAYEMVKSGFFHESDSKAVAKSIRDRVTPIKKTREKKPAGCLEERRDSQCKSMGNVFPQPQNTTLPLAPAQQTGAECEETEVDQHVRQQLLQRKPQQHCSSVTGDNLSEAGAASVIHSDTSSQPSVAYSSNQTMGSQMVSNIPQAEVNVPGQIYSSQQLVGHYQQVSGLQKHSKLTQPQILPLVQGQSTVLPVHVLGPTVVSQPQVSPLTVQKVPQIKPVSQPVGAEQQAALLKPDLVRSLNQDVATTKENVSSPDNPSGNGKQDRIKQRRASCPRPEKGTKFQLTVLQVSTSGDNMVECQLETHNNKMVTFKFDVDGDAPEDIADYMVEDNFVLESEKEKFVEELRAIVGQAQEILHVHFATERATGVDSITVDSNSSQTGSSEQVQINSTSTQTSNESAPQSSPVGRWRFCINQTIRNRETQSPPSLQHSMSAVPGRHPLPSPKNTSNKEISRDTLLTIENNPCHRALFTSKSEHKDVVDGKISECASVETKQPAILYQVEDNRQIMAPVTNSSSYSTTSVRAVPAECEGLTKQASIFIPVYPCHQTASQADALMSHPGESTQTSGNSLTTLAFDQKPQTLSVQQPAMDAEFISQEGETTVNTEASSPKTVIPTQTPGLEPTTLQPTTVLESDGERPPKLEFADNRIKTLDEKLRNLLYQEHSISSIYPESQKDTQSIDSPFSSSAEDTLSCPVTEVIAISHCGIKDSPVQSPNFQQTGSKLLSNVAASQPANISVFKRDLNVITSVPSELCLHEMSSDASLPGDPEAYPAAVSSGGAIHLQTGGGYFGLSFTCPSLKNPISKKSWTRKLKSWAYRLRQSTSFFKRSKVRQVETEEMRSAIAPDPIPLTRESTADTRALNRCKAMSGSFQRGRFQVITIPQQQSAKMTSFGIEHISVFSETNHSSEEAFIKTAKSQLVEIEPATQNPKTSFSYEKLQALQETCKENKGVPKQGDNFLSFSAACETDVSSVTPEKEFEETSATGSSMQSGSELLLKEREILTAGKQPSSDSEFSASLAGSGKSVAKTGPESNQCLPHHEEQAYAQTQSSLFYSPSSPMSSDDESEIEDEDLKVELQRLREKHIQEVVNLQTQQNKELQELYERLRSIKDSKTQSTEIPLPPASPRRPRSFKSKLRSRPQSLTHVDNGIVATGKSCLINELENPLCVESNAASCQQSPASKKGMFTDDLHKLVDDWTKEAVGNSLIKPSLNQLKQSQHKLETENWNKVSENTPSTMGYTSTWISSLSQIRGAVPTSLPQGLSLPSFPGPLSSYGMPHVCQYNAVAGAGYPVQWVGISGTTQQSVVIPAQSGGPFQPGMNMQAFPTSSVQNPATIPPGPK

Columns and labels:
[1] = target: T1, GFP-TSC22D4 full-length (FL) WT (human) (UniProt Q9Y3Q8); assay: co-IP; HEK293 co-transfected with GFP-TSC22D2 WT (fig. S3B: TSC22D4) and HA-NRBP1 WT or mutants for 36 hours; GFP immunoprecipitation; HA immunoblot, densitometry (Fig. 3D)
T1 sequence: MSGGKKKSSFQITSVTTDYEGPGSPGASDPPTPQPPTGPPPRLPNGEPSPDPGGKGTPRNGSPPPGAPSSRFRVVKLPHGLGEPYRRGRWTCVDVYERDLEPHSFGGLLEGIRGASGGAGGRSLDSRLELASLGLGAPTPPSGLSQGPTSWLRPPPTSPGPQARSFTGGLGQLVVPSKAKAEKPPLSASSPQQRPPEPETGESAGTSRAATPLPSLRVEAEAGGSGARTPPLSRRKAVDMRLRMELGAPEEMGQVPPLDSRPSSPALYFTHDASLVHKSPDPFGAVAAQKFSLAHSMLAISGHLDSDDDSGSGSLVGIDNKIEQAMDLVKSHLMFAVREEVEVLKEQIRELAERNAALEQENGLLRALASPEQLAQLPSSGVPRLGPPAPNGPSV

[2] = target: NRBP1 in HEK293 cells (fig. S8D) (human) (UniProt Q9UHY1); assay: co-IP; WNK1 (1 to 661) and NRBP1 in HEK293 cells (fig. S8D)
[3] = target: GFP-NRBP1 (N-terminal GFP knock-in at the endogenous NRBP1 locus) (human (endogenous in HEK293)) (UniProt Q9UHY1); assay: co-IP; GFP-NRBP1 KI HEK293 cells with or without 0.5 M sorbitol (1 to 30 min; WNK inhibitors in Fig. 4F); immunoprecipitation with GFP nanobody beads; immunoblot of endogenous partners (Figs. 4E,F, 7C, fig. S5A)

Substance: HA-NRBP1 WT (from UniProt Q9UHY1 1-535)
- binding [1]: binds

Substance: WNK1 fragment comprising the kinase domain (residues 1 to 661), expressed in HEK293 cells (from UniProt Q9H4A3 1-661) (domain or fragment)
- binding [2]: binds

Substance: WNK1, endogenous (from UniProt Q9H4A3 1-2382)
- binding [3]: binds

Substance: WNK3, endogenous (from UniProt Q9BYP7 1-1800)
- binding [3]: binds
